{"source": "the supplement of paper PMC8728848", "binders": {"B1": {"name": "AT1G15820(NC) (Arabidopsis thaliana) (protein)", "chain": "MAMAVSGAVLSGLGSSFLTGGKRGATALASGVGDAIAPFSFGSLLGTQLLLMGWVESKRWVDFFNPDSQSVEWATPWSKTAENFANYTGDQGYPGGRFFDPLGLAGKNRDGVYEPDFEKLERLKLAEIKHSRLAMVAMLIFYFEAGQGKTPLGALGL"}}, "assay_in_all_cases": "glycan array binding signal (z-score within array); higher = stronger binding", "conditions_in_all_cases": "glycan notation: IUPAC condensed, linker removed", "key": {"[1]": {"biological_target": "Neu5Ac(a2-3)Gal(b1-4)GlcNAc", "outline": "(§1)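 From the Consortium for Functional Glycomics database, 3228 arrays were curated, keeping only those whose protein sequence was available. Binding is given as a within-array Z-score averaged across arrays sharing a protein sequence and across linkers. Negative Z-scores can be read as non-binding.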"}, "[2]": {"biological_target": "Neu5Ac(a2-3)Gal(b1-4)GlcNAc(b1-2)Man", "outline": "as §1"}, "[3]": {"biological_target": "Neu5Ac(a2-3)Gal(b1-4)GlcNAc(b1-2)Man(a1-3)[GlcNAc(b1-4)][Neu5Ac(a2-3)Gal(b1-4)GlcNAc(b1-2)Man(a1-6)]Man(b1-4)GlcNAc(b1-4)GlcNAc", "outline": "as §1"}, "[4]": {"biological_target": "Neu5Ac(a2-3)Gal(b1-4)GlcNAc(b1-2)Man(a1-3)[Neu5Ac(a2-3)Gal(b1-4)GlcNAc(b1-2)Man(a1-6)]Man(b1-4)GlcNAc(b1-4)GlcNAc", "outline": "as §1"}, "[5]": {"biological_target": "Neu5Ac(a2-3)Gal(b1-4)GlcNAc(b1-2)Man(a1-3)[Neu5Ac(a2-3)Gal(b1-4)GlcNAc(b1-2)Man(a1-6)]Man(b1-4)GlcNAc(b1-4)[Fuc(a1-6)]GlcNAc", "outline": "as §1"}, "[6]": {"biological_target": "Neu5Ac(a2-3)Gal(b1-4)GlcNAc(b1-2)Man(a1-3)[Neu5Ac(a2-6)Gal(b1-4)GlcNAc(b1-2)Man(a1-6)]Man(b1-4)GlcNAc(b1-4)GlcNAc", "outline": "as §1"}, "[7]": {"biological_target": "Neu5Ac(a2-3)Gal(b1-4)GlcNAc(b1-2)[Neu5Ac(a2-3)Gal(b1-4)GlcNAc(b1-4)]Man(a1-3)[GlcNAc(b1-4)][Neu5Ac(a2-3)Gal(b1-4)GlcNAc(b1-2)[Neu5Ac(a2-3)Gal(b1-4)GlcNAc(b1-6)]Man(a1-6)]Man(b1-4)GlcNAc(b1-4)GlcNAc", "outline": "as §1"}, "[8]": {"biological_target": "Neu5Ac(a2-3)Gal(b1-4)GlcNAc(b1-2)[Neu5Ac(a2-3)Gal(b1-4)GlcNAc(b1-4)]Man(a1-3)[GlcNAc(b1-4)][Neu5Ac(a2-3)Gal(b1-4)GlcNAc(b1-4)Man(a1-6)]Man(b1-4)GlcNAc(b1-4)GlcNAc", "outline": "as §1"}, "[9]": {"biological_target": "Neu5Ac(a2-3)Gal(b1-4)GlcNAc(b1-2)[Neu5Ac(a2-3)Gal(b1-4)GlcNAc(b1-6)]Man(a1-6)[Neu5Ac(a2-3)Gal(b1-4)GlcNAc(b1-2)Man(a1-3)]Man(b1-4)GlcNAc(b1-4)GlcNAc", "outline": "as §1"}, "[10]": {"biological_target": "Neu5Ac(a2-3)Gal(b1-4)GlcNAc(b1-2)[Neu5Ac(a2-3)Gal(b1-4)GlcNAc(b1-6)]Man(a1-6)[Neu5Ac(a2-3)Gal(b1-4)GlcNAc(b1-2)Man(a1-3)][GlcNAc(b1-4)]Man(b1-4)GlcNAc(b1-4)GlcNAc", "outline": "as §1"}, "[11]": {"biological_target": "Neu5Ac(a2-3)Gal(b1-4)GlcNAc(b1-3)Gal", "outline": "as §1"}, "[12]": {"biological_target": "Neu5Ac(a2-3)Gal(b1-4)GlcNAc(b1-3)Gal(b1-3)GlcNAc", "outline": "as §1"}, "[13]": {"biological_target": "Neu5Ac(a2-3)Gal(b1-4)GlcNAc(b1-3)Gal(b1-4)GlcNAc", "outline": "as §1"}, "[14]": {"biological_target": "Neu5Ac(a2-3)Gal(b1-4)GlcNAc(b1-3)Gal(b1-4)GlcNAc(b1-2)Man(a1-3)[Neu5Ac(a2-3)Gal(b1-4)GlcNAc(b1-3)Gal(b1-4)GlcNAc(b1-2)Man(a1-6)]Man(b1-4)GlcNAc(b1-4)GlcNAc", "outline": "as §1"}, "[15]": {"biological_target": "Neu5Ac(a2-3)Gal(b1-4)GlcNAc(b1-3)Gal(b1-4)GlcNAc(b1-3)Gal(b1-4)GlcNAc", "outline": "as §1"}, "[16]": {"biological_target": "Neu5Ac(a2-3)Gal(b1-4)GlcNAc(b1-3)Gal(b1-4)GlcNAc(b1-3)Gal(b1-4)GlcNAc(b1-2)Man(a1-3)[Neu5Ac(a2-3)Gal(b1-4)GlcNAc(b1-3)Gal(b1-4)GlcNAc(b1-3)Gal(b1-4)GlcNAc(b1-2)Man(a1-6)]GalNAc", "outline": "as §1"}, "[17]": {"biological_target": "Neu5Ac(a2-3)Gal(b1-4)GlcNAc(b1-3)Gal(b1-4)GlcNAc(b1-3)GalNAc", "outline": "as §1"}, "[18]": {"biological_target": "Neu5Ac(a2-3)Gal(b1-4)GlcNAc(b1-3)Gal(b1-4)GlcNAc(b1-3)[Neu5Ac(a2-3)Gal(b1-4)GlcNAc(b1-3)Gal(b1-4)GlcNAc(b1-6)]GalNAc", "outline": "as §1"}, "[19]": {"biological_target": "Neu5Ac(a2-3)Gal(b1-4)GlcNAc(b1-3)Gal(b1-4)GlcNAc(b1-6)[Gal(b1-3)]GalNAc", "outline": "as §1"}, "[20]": {"biological_target": "Neu5Ac(a2-3)Gal(b1-4)GlcNAc(b1-3)Gal(b1-4)[Fuc(a1-3)]GlcNAc", "outline": "as §1"}, "[21]": {"biological_target": "Neu5Ac(a2-3)Gal(b1-4)GlcNAc(b1-3)GalNAc", "outline": "as §1"}, "[22]": {"biological_target": "Neu5Ac(a2-3)Gal(b1-4)GlcNAc(b1-3)[Neu5Ac(a2-3)Gal(b1-4)GlcNAc(b1-6)]GalNAc", "outline": "as §1"}, "[23]": {"biological_target": "Neu5Ac(a2-3)Gal(b1-4)GlcNAc(b1-6)GalNAc", "outline": "as §1"}, "[24]": {"biological_target": "Neu5Ac(a2-3)Gal(b1-4)GlcNAc(b1-6)[Gal(b1-3)]GalNAc", "outline": "as §1"}, "[25]": {"biological_target": "Neu5Ac(a2-3)Gal(b1-4)GlcNAc(b1-6)[Neu5Ac(a2-3)Gal(b1-3)]GalNAc", "outline": "as §1"}, "[26]": {"biological_target": "Neu5Ac(a2-3)Gal(b1-4)GlcNAc6S", "outline": "as §1"}, "[27]": {"biological_target": "Neu5Ac(a2-3)Gal(b1-4)[Fuc(a1-3)]GlcNAc", "outline": "as §1"}, "[28]": {"biological_target": "Neu5Ac(a2-3)Gal(b1-4)[Fuc(a1-3)]GlcNAc(b1-2)Man", "outline": "as §1"}, "[29]": {"biological_target": "Neu5Ac(a2-3)Gal(b1-4)[Fuc(a1-3)]GlcNAc(b1-3)Gal", "outline": "as §1"}, "[30]": {"biological_target": "Neu5Ac(a2-3)Gal(b1-4)[Fuc(a1-3)]GlcNAc(b1-3)Gal(b1-4)GlcNAc", "outline": "as §1"}, "[31]": {"biological_target": "Neu5Ac(a2-3)Gal(b1-4)[Fuc(a1-3)]GlcNAc(b1-3)Gal(b1-4)[Fuc(a1-3)]GlcNAc(b1-3)Gal(b1-4)[Fuc(a1-3)]GlcNAc", "outline": "as §1"}, "[32]": {"biological_target": "Neu5Ac(a2-3)Gal(b1-4)[Fuc(a1-3)]GlcNAc(b1-3)GalNAc", "outline": "as §1"}, "[33]": {"biological_target": "Neu5Ac(a2-3)Gal(b1-4)[Fuc(a1-3)]GlcNAc(b1-6)[Gal(b1-3)]GalNAc", "outline": "as §1"}, "[34]": {"biological_target": "Neu5Ac(a2-3)Gal(b1-4)[Fuc(a1-3)]GlcNAc(b1-6)[Neu5Ac(a2-3)Gal(b1-3)]GalNAc", "outline": "as §1"}, "[35]": {"biological_target": "Neu5Ac(a2-3)Gal(b1-4)[Fuc(a1-3)]GlcNAc6S", "outline": "as §1"}, "[36]": {"biological_target": "Neu5Ac(a2-3)Gal6S(b1-4)GlcNAc", "outline": "as §1"}, "[37]": {"biological_target": "Neu5Ac(a2-3)Gal6S(b1-4)[Fuc(a1-3)]GlcNAc", "outline": "as §1"}, "Neu5Ac(a2-3)GalNAc": {"biological_target": "Neu5Ac(a2-3)GalNAc", "outline": "as §1"}}, "note": "Some of the results follow.", "data": [{"binder": "B1", "values": [{"measurement": "glycan array binding signal (z-score)", "setting": "[1]", "result": 0.064}, {"measurement": "glycan array binding signal (z-score)", "setting": "[2]", "result": -0.217}, {"measurement": "glycan array binding signal (z-score)", "setting": "[3]", "result": -0.478}, {"measurement": "glycan array binding signal (z-score)", "setting": "[4]", "result": -0.433}, {"measurement": "glycan array binding signal (z-score)", "setting": "[5]", "result": -0.329}, {"measurement": "glycan array binding signal (z-score)", "setting": "[6]", "result": -0.673}, {"measurement": "glycan array binding signal (z-score)", "setting": "[7]", "result": -0.548}, {"measurement": "glycan array binding signal (z-score)", "setting": "[8]", "result": -0.277}, {"measurement": "glycan array binding signal (z-score)", "setting": "[9]", "result": -0.3}, {"measurement": "glycan array binding signal (z-score)", "setting": "[10]", "result": -0.198}, {"measurement": "glycan array binding signal (z-score)", "setting": "[11]", "result": -0.662}, {"measurement": "glycan array binding signal (z-score)", "setting": "[12]", "result": 0.253}, {"measurement": "glycan array binding signal (z-score)", "setting": "[13]", "result": -0.86}, {"measurement": "glycan array binding signal (z-score)", "setting": "[14]", "result": 1.8}, {"measurement": "glycan array binding signal (z-score)", "setting": "[15]", "result": -0.284}, {"measurement": "glycan array binding signal (z-score)", "setting": "[16]", "result": 0.549}, {"measurement": "glycan array binding signal (z-score)", "setting": "[17]", "result": -0.331}, {"measurement": "glycan array binding signal (z-score)", "setting": "[18]", "result": -0.185}, {"measurement": "glycan array binding signal (z-score)", "setting": "[19]", "result": -0.089}, {"measurement": "glycan array binding signal (z-score)", "setting": "[20]", "result": -0.36}, {"measurement": "glycan array binding signal (z-score)", "setting": "[21]", "result": -0.367}, {"measurement": "glycan array binding signal (z-score)", "setting": "[22]", "result": -0.604}, {"measurement": "glycan array binding signal (z-score)", "setting": "[23]", "result": -0.611}, {"measurement": "glycan array binding signal (z-score)", "setting": "[24]", "result": -0.488}, {"measurement": "glycan array binding signal (z-score)", "setting": "[25]", "result": -0.383}, {"measurement": "glycan array binding signal (z-score)", "setting": "[26]", "result": -0.18}, {"measurement": "glycan array binding signal (z-score)", "setting": "[27]", "result": -0.371}, {"measurement": "glycan array binding signal (z-score)", "setting": "[28]", "result": -0.437}, {"measurement": "glycan array binding signal (z-score)", "setting": "[29]", "result": -0.225}, {"measurement": "glycan array binding signal (z-score)", "setting": "[30]", "result": 0.294}, {"measurement": "glycan array binding signal (z-score)", "setting": "[31]", "result": -0.32}, {"measurement": "glycan array binding signal (z-score)", "setting": "[32]", "result": 2.9}, {"measurement": "glycan array binding signal (z-score)", "setting": "[33]", "result": 0.282}, {"measurement": "glycan array binding signal (z-score)", "setting": "[34]", "result": 1.64}, {"measurement": "glycan array binding signal (z-score)", "setting": "[35]", "result": -0.211}, {"measurement": "glycan array binding signal (z-score)", "setting": "[36]", "result": -0.177}, {"measurement": "glycan array binding signal (z-score)", "setting": "[37]", "result": -0.474}, {"measurement": "glycan array binding signal (z-score)", "setting": "Neu5Ac(a2-3)GalNAc", "result": -0.722}]}]}
